Experimental data: the supplement of paper PMC10126150
Sequences with one replicate were seen in a single cluster, so their values are uncertain.

System: ATP
Experiment: switch fluorescence ratio, 500 uM ATP over buffer (Cy3 cluster intensity, sum of 5 cycles each) (fold (ratio)); higher = stronger signal-on switching upon ATP binding; sequences stand for … in TCGTCGGCAGCGTCAGATGTGTATAAGAGACAGTTTTTTTTTTTTTTTTTTTTTTTTT…TC
Conditions: aptamer strand: ATP DNA aptamer (quencher-CACCTGGGGGAGTATTGCGGAGGAAGG + anchor), 100 nM annealed; ATP concentration: 500 uM; one replicate
In short: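 The fluorescence ratio divides summed target-cycle Cy3 intensity by summed buffer-cycle Cy3 intensity for each cluster and is averaged per switch-domain sequence. Cy3-labelled switching-strand clusters on a modified Illumina MiSeq flow-cell were annealed to 100 nM quencher-labelled ATP aptamer, then imaged in selection buffer and again after 15 min with 500 uM ATP at 22 °C. Five such cycles were run, with NaOH stripping and re-annealing between them, and clusters outside 100-1000 RFU were excluded.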
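Further: ATP exposure 15 min at 22 °C before imaging.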

Sequence	switch fluorescence ratio
CGAAGGGTAG	0.994
ACGAGCCTGG	1.7
ACTACGGTCT	1.02
ATACTAATAT	1.03
AGTCAAATTG	0.979
TGCGATTTGC	1.04
AATTACTAGA	1.02
CTGCCTCTAT	1.03
TACCCACTTA	1.25
AAATCTTTGC	1.01
AGTTACTTAA	1.06
GCTAATATGC	0.982
TCATATGGGC	1.14
GAAATTGCTT	0.957
TAGTGGGACT	1.04
TTGTAAAAGC	1.05
CTCGCCACTA	1.07
AATGGAGTTC	0.994
TGGTGTGGCC	0.96
TACCTTTTGT	1
ATGGTCGAT	0.973
CGAAATAGTT	1.05
AGCTGTTAGA	1.02

Sequence	switch fluorescence ratio
CCCCAATATA	1.47
CGTCAGCCGG	1.05
TTGTAAGGTG	1.22
TATAGCGCAC	1.13
ACTCCCGGTG	4.15
CCGAGTCTCA	1.18
GGGTATTCCC	0.974
TGGTTACGCC	0.98
GGGTGTGTCC	0.98
CATACTTTAC	1.38
CGGCTGGGCA	1.03
GTTATTGCC	0.987
GGGAGTCGCG	0.982
GAAGTCGCGG	0.987
CCCTATTCAT	1.02
CAAATCAAAG	0.978
GGCTTATAAT	1
AACCAGTAT	1.01
ACGCGTCTTC	1.06
GCGAGTACTA	1.08
GCAATTAG	1.52
GGTTCAGTT	1.01
ATTAGTGACT	1.08

Sequence	switch fluorescence ratio
TAATTGACCC	1.03
CATTAAACA	0.98
ATTTGGCGTT	1
GTTATGGAGC	0.976
AATGCAATCA	0.998
ATCCTTGGGG	1
TAATCTCTGC	1.02
ATTCAACCAA	0.976
TGAGCTAAAC	1.17
TCGACTCGGG	0.99
AAAAGACGCG	1.11
CCAGTCGCTG	1
CAGAATGAAA	1.01
GCGACTATTA	1.01
TGCGGCATG	1.04
CGTACGGCGT	0.953
CCGAAGGTCT	1.08
TGAAGACCTA	1.03
CGTGGGGGA	1.05
CGCGCCGCGT	1.01
GGGAAAGCGA	1.02
TATTCCGTTA	1.04
CGCGTTAGAA	1.02

Sequence	switch fluorescence ratio
TTCCATCC	1.1
GACATCTAAA	1.03
GATTTCAGAT	0.989
TGCCTGCCGC	1.19
TCGTATGGTC	1.38
AGACTTCCCT	1.15
TTCACACGTG	0.995
TATGTGGGCA	0.988
TGATGTAGAC	1.02
GAGGGTAATT	1.05
CCTGAGCCAC	2.49
CGCCTAGGGC	1.01
AGTTTTGCAC	0.988
AACCACAGGC	1.1
TTTGTTATTC	0.997
CGTGTCGTAC	1.02
TTACAATCCC	1.05
GATAGCAAGC	2.35
TGATGTATGT	0.95
GAAGCCGTAG	0.945
GGGCAATCGA	1.37
AAGTCGAGAA	1.01
GCACACCGGA	1.18

Sequence	switch fluorescence ratio
GACCTGTAGC	1.07
GTTAGTATTT	0.952
GTTGGACACT	1.01
TGGGACCATG	0.964
GATGTCTCAT	1.03
CTCAATCCTT	1.76
GACTATCTTG	1.01
CAGCTATCGT	0.99
GTTTGATTCG	1.02
TGATTTCGTT	0.99
TTAAACCAGA	1
CGGATCAAA	1.01
CCCCTTGAGC	1.03
AGCGGGAGCA	0.931
AAAACACCCG	0.985
AGTGTGTTTG	0.99
TTCGGGGCT	0.992
CAAGAGTACA	1.06
TTACTATG	1.04
AAGAGGATTG	0.973
AGTCGGGATA	0.968
TGTTCTTGC	0.948
TACTGGTTTC	0.976

Sequence	switch fluorescence ratio
ATTGTGGCTC	0.99
TGCAGTAGAG	0.982
TAGCCTTTAT	0.989
GGGCGGGAGT	0.998
CTGGTTTCGT	0.961
ACAGCCTATT	1.01
CCTAGAGGTC	0.992
CATAGGAGAA	0.94
ACGGGAGGAC	1.02
GGTCGCTCGT	0.977
GGGTTTCCT	1.04
CGGAGATAGA	1
CCTGGTCTTC	1.02
ACGCTTTACT	2.02
TCTGACGGAT	1.08
GCTGGGGACA	1.01
GCACAAGCGT	0.995
GGGTTGGTGA	0.946
CGGATGGCTC	1.04
ATTGATGGTG	0.952
TAGGCGAAGC	1.01
AGTCTCACCG	0.99
TTCCTGGTAT	1.03

Sequence	switch fluorescence ratio
GTGGTCAGGT	0.982
CTCCCGGAGT	1.14
AGCATATCG	1.03
TTTGATTGCT	0.991
ATCAAGATCG	0.977
TGGGAGATAG	0.983
TACGTCTTAA	1.03
CGAAATAGGG	1.01
GTCCCTAGAA	0.987
CTGCGATCCA	1.02
CTGTGTGCTA	1.03
GCAACATTCA	1.07
GACCTAGTGA	1.02
TCGCAGCTGT	1.5
TTTACGATAC	2.62
GAACTGTCAG	0.989
AAGGTGTAGG	1.06
GGCTGTAGTT	0.957
GCTAAGTTCG	0.997
